Assay results published in the supplement of paper PMC12217912.
Some of the results follow. The full chains were built here from the parent and the listed change. Inactive controls read about 0.05.

B1: TEV protease; numbered along this chain (parent)
chain: MGESLFKGPRDYNPISSSICHLTNESDGHTTSLYGIGFGPFIITNKHLFRRNNGTLVVQSLHGVFKVKDTTTLQQHLVDGRDMIIIRMPKDFPPFPQKLKFREPQREERICLVTTNFQTKSMSSMVSDTSCTFPSGDGIFWKHWIQTKDGQCGSPLVSTRDGFIVGIHSASNFTNTNNYFTSVPKNFMELLTNQEAQQWVSGWRLNADSVLWGGHKVFMVKPEEPFQPVKEATQL

Variants of: B1
Experiment: raw area under fraction-flipped curve 0-4 h after induction (AUC4h, not background-subtracted), DNA-recorder readout of cleavage of the substrate (dimensionless); higher = more cleavage of the substrate by the protease variant
Conditions: temperature: 34 °C; time window: 0-4 h after rhamnose induction
Experimental: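 In vivo DNA recorder in E. coli TOP10(DE3) ΔrhaA at 34 °C. Each TEVp single-site mutant (parent TEVp 0) is paired with a single-site variant of the 7-mer TEVs (canonical ENLYFQ|S). The substrate sits between flexible linkers in a Bxb1-sfGFP-TEVs-SsrA fusion, so cleavage stabilises Bxb1 and speeds flipping of a recombination array, read by NGS. The value is the raw area under the fraction-flipped curve over 0-4 h after rhamnose induction (AUC4h), with ≥20 reads per time point. It is not background-subtracted; inactive controls average about 0.047.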
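Further: Bxb1 expression induced with 0.2% (w/v) L-rhamnose at OD600 near 0.5, cultures sampled hourly, flipped fraction per protease–substrate barcode pair counted by paired-end Illumina sequencing.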

Variant	area with substrate ENAYFQS	area with substrate ENCYFQS	area with substrate ENDYFQS	area with substrate ENEYFQS	area with substrate ENFYFQS	area with substrate ENGYFQS	area with substrate ENHYFQS	area with substrate ENIYFQS	area with substrate ENKYFQS	area with substrate ENMYFQS	area with substrate ENNYFQS	area with substrate ENPYFQS	area with substrate ENQYFQS	area with substrate ENRYFQS	area with substrate ENSYFQS	area with substrate ENVYFQS	area with substrate ENYYFQS	area with substrate ENTYFQS	area with substrate ENWYFQS
MGESLFKGPRDYNPIWSSICHLTNESDGHTTSLYGIGFGPFIITNKHLFRRNNGTLVVQSLHGVFKVKDTTTLQQHLVDGRDMIIIRMPKDFPPFPQKLKFREPQREERICLVTTNFQTKSMSSMVSDTSCTFPSGDGIFWKHWIQTKDGQCGSPLVSTRDGFIVGIHSASNFTNTNNYFTSVPKNFMELLTNQEAQQWVSGWRLNADSVLWGGHKVFMVKPEEPFQPVKEATQL [S16W]	0.0671	0.0618	0.0601	0.0603	0.062	0.0866	0.0576	0.152	0.0507	0.0643	0.0573	0.0608	0.0545	0.0639	0.0831	0.0866	0.0687	–	–
MGSSLFKGPRDYNPISSSICHLTNESDGHTTSLYGIGFGPFIITNKHLFRRNNGTLVVQSLHGVFKVKDTTTLQQHLVDGRDMIIIRMPKDFPPFPQKLKFREPQREERICLVTTNFQTKSMSSMVSDTSCTFPSGDGIFWKHWIQTKDGQCGSPLVSTRDGFIVGIHSASNFTNTNNYFTSVPKNFMELLTNQEAQQWVSGWRLNADSVLWGGHKVFMVKPEEPFQPVKEATQL [E3S]	0.0522	0.0672	0.0412	0.0738	–	0.046	0.0574	–	0.039	0.0888	0.0716	–	0.0494	0.0545	0.0602	0.0861	0.0674	0.0646	–
MGESLFKGPRDYDPISSSICHLTNESDGHTTSLYGIGFGPFIITNKHLFRRNNGTLVVQSLHGVFKVKDTTTLQQHLVDGRDMIIIRMPKDFPPFPQKLKFREPQREERICLVTTNFQTKSMSSMVSDTSCTFPSGDGIFWKHWIQTKDGQCGSPLVSTRDGFIVGIHSASNFTNTNNYFTSVPKNFMELLTNQEAQQWVSGWRLNADSVLWGGHKVFMVKPEEPFQPVKEATQL [N13D]	0.061	0.0577	0.0546	0.0546	0.0579	0.0563	0.0631	–	–	0.0786	0.0495	0.0606	0.0611	0.0521	0.076	0.0469	0.054	0.0667	0.0072
MGESLFKGPRDYAPISSSICHLTNESDGHTTSLYGIGFGPFIITNKHLFRRNNGTLVVQSLHGVFKVKDTTTLQQHLVDGRDMIIIRMPKDFPPFPQKLKFREPQREERICLVTTNFQTKSMSSMVSDTSCTFPSGDGIFWKHWIQTKDGQCGSPLVSTRDGFIVGIHSASNFTNTNNYFTSVPKNFMELLTNQEAQQWVSGWRLNADSVLWGGHKVFMVKPEEPFQPVKEATQL [N13A]	0.0614	0.0589	0.0639	0.0613	0.0674	–	0.053	0.104	–	0.0672	0.0627	0.0628	0.0592	0.0596	0.0614	0.0953	0.0745	0.0653	–
MGESLFKGWRDYNPISSSICHLTNESDGHTTSLYGIGFGPFIITNKHLFRRNNGTLVVQSLHGVFKVKDTTTLQQHLVDGRDMIIIRMPKDFPPFPQKLKFREPQREERICLVTTNFQTKSMSSMVSDTSCTFPSGDGIFWKHWIQTKDGQCGSPLVSTRDGFIVGIHSASNFTNTNNYFTSVPKNFMELLTNQEAQQWVSGWRLNADSVLWGGHKVFMVKPEEPFQPVKEATQL [P9W]	0.0744	–	0.0638	–	0.0631	–	0.0664	0.197	0.0619	0.0623	0.0461	0.0499	–	–	0.0614	0.0742	–	0.0652	–
MGESLFKGGRDYNPISSSICHLTNESDGHTTSLYGIGFGPFIITNKHLFRRNNGTLVVQSLHGVFKVKDTTTLQQHLVDGRDMIIIRMPKDFPPFPQKLKFREPQREERICLVTTNFQTKSMSSMVSDTSCTFPSGDGIFWKHWIQTKDGQCGSPLVSTRDGFIVGIHSASNFTNTNNYFTSVPKNFMELLTNQEAQQWVSGWRLNADSVLWGGHKVFMVKPEEPFQPVKEATQL [P9G]	0.0383	0.0581	0.0598	0.0462	0.0526	0.0506	–	0.112	0.064	0.0737	0.0661	0.0349	0.0466	–	0.0627	0.0816	–	–	0.0534
MGESLFKGPRDDNPISSSICHLTNESDGHTTSLYGIGFGPFIITNKHLFRRNNGTLVVQSLHGVFKVKDTTTLQQHLVDGRDMIIIRMPKDFPPFPQKLKFREPQREERICLVTTNFQTKSMSSMVSDTSCTFPSGDGIFWKHWIQTKDGQCGSPLVSTRDGFIVGIHSASNFTNTNNYFTSVPKNFMELLTNQEAQQWVSGWRLNADSVLWGGHKVFMVKPEEPFQPVKEATQL [Y12D]	0.0569	0.0551	0.0592	0.0444	0.0418	0.0739	0.0545	0.0879	0.0758	–	0.0662	0.051	0.0494	–	0.0634	0.0685	–	0.0524	0.0074
MGESLFKGPRDENPISSSICHLTNESDGHTTSLYGIGFGPFIITNKHLFRRNNGTLVVQSLHGVFKVKDTTTLQQHLVDGRDMIIIRMPKDFPPFPQKLKFREPQREERICLVTTNFQTKSMSSMVSDTSCTFPSGDGIFWKHWIQTKDGQCGSPLVSTRDGFIVGIHSASNFTNTNNYFTSVPKNFMELLTNQEAQQWVSGWRLNADSVLWGGHKVFMVKPEEPFQPVKEATQL [Y12E]	0.0658	0.0735	0.0422	0.0659	0.0455	0.0666	0.0702	–	0.0452	–	0.0573	0.0649	0.0609	0.0599	0.0636	0.0544	–	–	–
MGESLFKGPRDYNPWSSSICHLTNESDGHTTSLYGIGFGPFIITNKHLFRRNNGTLVVQSLHGVFKVKDTTTLQQHLVDGRDMIIIRMPKDFPPFPQKLKFREPQREERICLVTTNFQTKSMSSMVSDTSCTFPSGDGIFWKHWIQTKDGQCGSPLVSTRDGFIVGIHSASNFTNTNNYFTSVPKNFMELLTNQEAQQWVSGWRLNADSVLWGGHKVFMVKPEEPFQPVKEATQL [I15W]	0.0589	0.0638	0.0548	0.0739	0.0509	0.07	0.0805	0.117	0.068	0.0661	0.0527	0.0667	0.0639	0.0635	0.0597	0.0713	0.052	0.0695	0.0554
MGESLFKGPRDYNPYSSSICHLTNESDGHTTSLYGIGFGPFIITNKHLFRRNNGTLVVQSLHGVFKVKDTTTLQQHLVDGRDMIIIRMPKDFPPFPQKLKFREPQREERICLVTTNFQTKSMSSMVSDTSCTFPSGDGIFWKHWIQTKDGQCGSPLVSTRDGFIVGIHSASNFTNTNNYFTSVPKNFMELLTNQEAQQWVSGWRLNADSVLWGGHKVFMVKPEEPFQPVKEATQL [I15Y]	0.0621	0.0662	0.0557	0.0617	0.0655	0.0591	0.0695	0.0877	0.0729	0.0648	0.0594	–	0.0641	–	0.0649	–	–	0.0354	0.0444
MGESLFKGPRDYNPASSSICHLTNESDGHTTSLYGIGFGPFIITNKHLFRRNNGTLVVQSLHGVFKVKDTTTLQQHLVDGRDMIIIRMPKDFPPFPQKLKFREPQREERICLVTTNFQTKSMSSMVSDTSCTFPSGDGIFWKHWIQTKDGQCGSPLVSTRDGFIVGIHSASNFTNTNNYFTSVPKNFMELLTNQEAQQWVSGWRLNADSVLWGGHKVFMVKPEEPFQPVKEATQL [I15A]	0.0601	0.0579	0.0644	0.0585	0.0561	0.0594	0.0625	–	0.0642	–	0.0527	0.0724	0.0659	0.0589	0.0539	0.0677	–	0.05	0.0467
MGESLFKGPRDYNSISSSICHLTNESDGHTTSLYGIGFGPFIITNKHLFRRNNGTLVVQSLHGVFKVKDTTTLQQHLVDGRDMIIIRMPKDFPPFPQKLKFREPQREERICLVTTNFQTKSMSSMVSDTSCTFPSGDGIFWKHWIQTKDGQCGSPLVSTRDGFIVGIHSASNFTNTNNYFTSVPKNFMELLTNQEAQQWVSGWRLNADSVLWGGHKVFMVKPEEPFQPVKEATQL [P14S]	0.061	0.0658	0.0587	0.0679	0.0797	0.0688	–	0.0942	–	–	0.0665	0.0561	0.0698	0.0906	0.0618	0.0706	0.0653	0.0672	0.072
MGESLFKGPRDYNRISSSICHLTNESDGHTTSLYGIGFGPFIITNKHLFRRNNGTLVVQSLHGVFKVKDTTTLQQHLVDGRDMIIIRMPKDFPPFPQKLKFREPQREERICLVTTNFQTKSMSSMVSDTSCTFPSGDGIFWKHWIQTKDGQCGSPLVSTRDGFIVGIHSASNFTNTNNYFTSVPKNFMELLTNQEAQQWVSGWRLNADSVLWGGHKVFMVKPEEPFQPVKEATQL [P14R]	0.049	0.0858	0.0639	–	0.0642	0.0691	0.0616	0.102	0.061	–	0.0622	–	0.0601	0.0597	0.0556	0.0848	–	0.0727	0.0644
MEESLFKGPRDYNPISSSICHLTNESDGHTTSLYGIGFGPFIITNKHLFRRNNGTLVVQSLHGVFKVKDTTTLQQHLVDGRDMIIIRMPKDFPPFPQKLKFREPQREERICLVTTNFQTKSMSSMVSDTSCTFPSGDGIFWKHWIQTKDGQCGSPLVSTRDGFIVGIHSASNFTNTNNYFTSVPKNFMELLTNQEAQQWVSGWRLNADSVLWGGHKVFMVKPEEPFQPVKEATQL [G2E]	0.063	0.0691	0.0608	0.0095	–	0.0514	–	–	0.0623	–	0.0492	0.0495	0.0488	0.0541	0.0613	0.0881	0.0602	–	–
MGESLFKGPRMYNPISSSICHLTNESDGHTTSLYGIGFGPFIITNKHLFRRNNGTLVVQSLHGVFKVKDTTTLQQHLVDGRDMIIIRMPKDFPPFPQKLKFREPQREERICLVTTNFQTKSMSSMVSDTSCTFPSGDGIFWKHWIQTKDGQCGSPLVSTRDGFIVGIHSASNFTNTNNYFTSVPKNFMELLTNQEAQQWVSGWRLNADSVLWGGHKVFMVKPEEPFQPVKEATQL [D11M]	0.0623	0.0636	0.07	0.0669	0.0599	–	0.0318	0.0671	0.0643	0.0715	0.0639	0.0491	0.0672	0.0508	0.0651	0.0578	0.0661	0.0667	–
MGESLFKRPRDYNPISSSICHLTNESDGHTTSLYGIGFGPFIITNKHLFRRNNGTLVVQSLHGVFKVKDTTTLQQHLVDGRDMIIIRMPKDFPPFPQKLKFREPQREERICLVTTNFQTKSMSSMVSDTSCTFPSGDGIFWKHWIQTKDGQCGSPLVSTRDGFIVGIHSASNFTNTNNYFTSVPKNFMELLTNQEAQQWVSGWRLNADSVLWGGHKVFMVKPEEPFQPVKEATQL [G8R]	0.0634	–	–	0.0579	0.0848	–	–	–	–	–	0.0597	–	–	–	–	–	–	0.0437	–
MGESLFKGPNDYNPISSSICHLTNESDGHTTSLYGIGFGPFIITNKHLFRRNNGTLVVQSLHGVFKVKDTTTLQQHLVDGRDMIIIRMPKDFPPFPQKLKFREPQREERICLVTTNFQTKSMSSMVSDTSCTFPSGDGIFWKHWIQTKDGQCGSPLVSTRDGFIVGIHSASNFTNTNNYFTSVPKNFMELLTNQEAQQWVSGWRLNADSVLWGGHKVFMVKPEEPFQPVKEATQL [R10N]	0.0849	–	0.0564	0.063	0.0724	–	0.0614	0.0991	0.0795	–	0.0736	0.0689	0.0667	0.0473	0.0668	0.0692	0.0608	0.0682	–
